Measured values taken from ChEMBL document CHEMBL4888484, “Replenishing the malaria drug discovery pipeline: Screening and hit evaluation of the MMV Hit Generation Library 1 (HGL1) against asexual blood stage Plasmodium falciparum ,using a nano luciferase reporter read-out” (2022).
In all, about 150,000 compounds went through this assay and about 540 (0.36%) showed an effect of 50% or more. The list shows a part of the results.

test system: Plasmodium falciparum; assay: Primary screen in NF54 nanoGlo assay, in single point, at 2uM, 72h; a lower Z score goes with more inhibition; type: functional, Erythrocyte; settings: timepoint 72 hour

| Structure (SMILES) | % Inhibition [%] | Z score |
| --- | --- | --- |
| CC(CNS(=O)(=O)C1CCOC1C)c1cccs1 (stereo not drawn) | -10 | 1.34 |
| O=C(c1ccco1)N1CCN(C2CCCCCC2)CC1 | 31 | -3.95 |
| C[C@@H](Cn1cncn1)NC(=O)c1ccc(=O)n(C)c1 | 0 | 0 |
| O=C(NCc1ccccc1)NCC1CCOCC1 | -4 | 0.48 |
| O=C1CCN(C(=O)c2ccco2)CCOCCN1 | -1 | 0.13 |
| Cc1nc(C(=O)N2c3ccccc3NC(=O)C[C@@H]2C)cs1 | -3 | 0.53 |
| CN1CCN(Cc2ccc(-c3ccccc3)cc2)CCC1=O | 6 | -1.02 |
| COc1cccc(C(=O)Nc2ccc(OCc3nnc(-c4ccccc4)o3)cc2)c1OC | -11 | 1.31 |
| COc1ccc(Cl)cc1C(=O)Nc1cc(C2CC2)nn1-c1nc(C)cc(=O)[nH]1 | 63 | -6.61 |
| Cc1cc(S(=O)(=O)N2C[C@@H]3C[C@@]2(C(=O)O)[C@@H]3C)sc1C | -6 | 1.15 |
| CCCN1CCN(CCNc2nnc(-c3nc(C4CC4)no3)c3ccccc23)CC1 | 4 | -0.47 |
| O=C(c1cc(-c2ccco2)nc2c(Cl)cccc12)N1CCCOCC1 | -17 | 1.59 |
| O=C(Nc1cccc2ncccc12)C(c1ccccc1)c1ccccc1 | 12 | -1.64 |
| CN1CCCCC[C@H]1c1ncnn1C1CCCCC1 | -16 | 1.74 |
| COCCCn1cnc2c(-c3ccccc3)cn(CC(=O)NCc3ccc4c(c3)OCO4)c2c1=O | -2 | 0.31 |
| COc1cc(C)ccc1OCCN(C)C | -12 | 1.67 |
| CCC(C)C(OC)C(=O)Nc1nn(C)cc1C#N (stereo not drawn) | -4 | 0.73 |
| CC1CCC(NC2CCN(Cc3ccccc3)CC2)CC1 (stereo not drawn) | 2 | -0.3 |
| Cc1cc(CNC2CCC3(CC2)CCN(C(=O)OC(C)(C)C)C3)on1 (stereo not drawn) | -14 | 2.95 |
| Cc1c(NC(=O)c2n[nH]cc2Br)c(=O)n(-c2ccccc2)n1C | 30 | -0.74 |
| CO[C@H]1CN(C)C[C@@H]1NS(=O)(=O)CC1CCCC1 | -14 | 2.69 |
| c1nc2nc3c(c(N4CC[C@H]5CCCC[C@@H]5C4)n2n1)CCCC3 | -1 | 0.24 |
| C[C@@H](Cn1cncn1)N1CCC(n2cc(-c3ccc(F)cc3)nn2)CC1 | 1 | -0.24 |
| COCCCN1C(=O)CC(CC(=O)N(Cc2ccccc2)C[C@@H]2CCC(=O)N2)(c2ccccc2)C1=O (stereo partly drawn) | -2 | 0.34 |
